# Measured values from the supplement of paper PMC3334620.
# The full ranking holds about 33,000 sequences; the median of “E-score (-0.5 to 0.5)” is about -0.016, and the highest 2% start at about 0.31. The list shows a part of the results.
# Biological target: Cst6 (UniProt P40535)
# Test: PBM E-score (8-mer binding enrichment) (E-score (-0.5 to 0.5)); higher = stronger / more preferred TF binding; most listed sequences are background and not binding sites
# Settings: protein concentration: 200 nM; construct: GST-DNA-binding domain
# Procedure, shortened: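 PURExpress in vitro transcription/translation supplied GST-tagged yeast transcription factors, either full-length or DNA-binding domain. Applied at about 100-200 nM to universal all-10-mer Agilent arrays double-stranded by primer extension, the bound protein was detected with fluorescent anti-GST. E-scores, modified Wilcoxon-Mann-Whitney statistics, were given by the Universal PBM Analysis Suite to ungapped eight-base words pooled with their reverse complements after masliner normalisation.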
row,Sequence,PBM E-score
1,GCACGCCA,-0.0767
2,CAACCGAG,-0.138
3,GCTCGAAA,-0.03
4,GCGGCGCC,0.376
5,TCTCTAAA,-0.0336
6,GACCTCAA,0.195
7,CAGCGAAG,-0.126
8,CCCACCGC,-0.094
9,ATCTCCTG,0.027
10,CTTTTCGA,0.201
11,GTATCGAA,0.131
12,CGAACAAA,0.22
13,TATTCGCA,0.154
14,CCATATGA,0.115
15,ATAGAGGC,-0.0967
16,ATTCAGGA,0.1
17,CTTCACGA,-0.183
18,AGTATCGC,-0.0882
19,AAAGAACT,0.114
20,GCATGGTA,-0.00978
21,CAACACCG,-0.0342
22,CTATAGTC,-0.0652
23,ACTTACAA,0.196
24,AAGAGTAA,0.21
25,ATTCCTCG,-0.0625

row,Sequence,PBM E-score
1,AACCGTAT,-0.216
2,ACTCCCCA,-0.174
3,CCGCCCCA,0.00048
4,AGTGTCTA,-0.0121
5,CGTAATCA,0.427
6,CTTACTCC,-0.11
7,ATGGGTAA,0.0783
8,GTGGCAAC,-0.0356
9,CCCTATGC,-0.245
10,AGAAAGCG,0.0485
11,ACTTCGGA,0.103
12,CCTAAGGA,-0.0635
13,AGGCGACT,-0.103
14,AAATGCCG,0.282
15,CCGAACCA,-0.198
16,TCGGAGCA,-0.239
17,AGCCCGCA,-0.193
18,ACCTGAGA,-0.0108
19,CCCTCTAC,-0.296
20,AATGATTC,0.225
21,ACCGACCC,-0.0871
22,ACCGCAGT,-0.0541
23,GAGCCCGA,-0.0446
24,AAAAGGAC,-0.041
25,AACCACTG,0.0638

row,Sequence,PBM E-score
1,GAGATTGC,-0.217
2,AGCGTAGC,-0.198
3,GAGTATTA,0.131
4,AATAGCGG,-0.112
5,CCTTCGTC,-0.00736
6,CTCCGCCC,-0.249
7,GCAGAGTA,-0.122
8,CAAACGGC,0.204
9,ATTGAAGG,-0.183
10,CCTGTGAC,0.124
11,AAGCTGAC,0.163
12,CCGGCATC,-0.199
13,CGATCTTC,-0.164
14,AACTACGG,-0.11
15,CCCCGTTA,-0.129
16,AACGCTCT,-0.252
17,AGGAGGTC,-0.241
18,CAGCCCAG,-0.383
19,CTTACAAG,0.0591
20,AAATTTGA,0.185
21,GCGATTCC,-0.238
22,ACATACCT,0.146
23,GTACTGAC,0.0925
24,GAGACTAA,-0.0492
25,CGGGCAGC,-0.178

row,Sequence,PBM E-score
1,CACCCGCG,0.2
2,AGCCGTTA,0.144
3,GCGGGTCA,0.00648
4,CTAGTCAG,-0.184
5,GCCGCGGA,0.0146
6,CGGATCCG,-0.109
7,GGCCCTAA,-0.154
8,TATAGGGA,-0.173
9,CAGAGTCA,-0.0937
10,TATTCCCA,-0.0457
11,AGATGGTC,-0.26
12,CCTAATCG,0.0636
13,CTTTTGAA,0.175
14,CTTGGAGA,-0.161
15,CGCGAAAA,0.137
16,AGTTAAGC,0.139
17,ACTAACAC,0.078
18,AAGTCTCA,-0.228
19,CTAATGAA,0.11
20,AAAGATAG,-0.026
21,AACGCATC,-0.0267
22,CTGATACC,-0.0973
23,AGAAATCG,-0.0866
24,GACTCATA,0.0553
25,CGGCGCTC,0.13

row,Sequence,PBM E-score
1,TCGCGTAA,0.314
2,AGTCTCGA,-0.146
3,CTTCTCCC,-0.246
4,GTCCAGCA,-0.336
5,CGGTGCTC,-0.13
6,ATAATACG,0.225
7,AACGGAAA,0.142
8,CAGGCCCG,-0.343
9,CACTCACG,0.00761
10,ACATACTG,-0.0812
11,AACCATTA,0.221
12,AGGAGCTC,-0.261
13,CCGGTCTA,-0.207
14,GAGGATGA,0.144
15,AGACCATC,-0.128
16,CAGGTCTA,-0.158
17,CACTCCTC,-0.0875
18,CTACGACC,-0.234
19,AGCTCCGG,-0.169
20,GGCACAAA,0.119
21,GACAAAGA,0.157
22,CAGTGTAA,0.107
23,GGACCCAC,-0.0974
24,CACGAGCG,-0.131
25,CTGGTCAA,-0.0782

row,Sequence,PBM E-score
1,CTAGACCA,-0.12
2,CGGCCTGA,-0.22
3,AAGCGGCC,-0.222
4,ATTTAGAA,0.15
5,CCGTACCG,-0.0599
6,ATATTATA,0.219
7,ATACACCG,-0.0621
8,ACGGAAGA,0.0815
9,CAGCTTAC,0.0119
10,ATCGTACC,-0.0751
11,AAGTCCAA,-0.0248
12,CACGCAAA,0.155
13,AATTTCCA,0.218
14,GGTAGGCA,-0.184
15,AAAGGTGC,-0.0338
16,GGGACTAA,-0.189
17,AGCTGCTC,-0.228
18,CGAGTTGA,-0.00964
19,GCACGGAA,0.0438
20,GCGCATCA,0.0758
21,AAAAGGGC,0.0591
22,AGGTAGAA,-0.0392
23,TAAGACCA,-0.0159
24,ACATACGG,0.106
25,GGTCTAAA,0.00924

row,Sequence,PBM E-score
1,CTCCACCA,-0.373
2,ACTTTCTA,-0.0669
3,GAAACAAC,-0.00995
4,CGAGCTGC,-0.0922
5,GGACCAGA,-0.193
6,AACGACCA,0.0758
7,GGGGGCTA,-0.302
8,AGAACTGG,-0.0721
9,GGAGGACA,-0.227
10,ATGCTTCA,-0.00241
11,AATGGCAT,0.299
12,AATACTGA,0.104
13,TACAGGGA,-0.162
14,AAGCGACC,-0.0874
15,CGTCGGAC,-0.178
16,CCCTTGCG,-0.289
17,ATGCGTAA,0.268
18,TATACCCA,-0.168
19,CGCAAGTC,-0.275
20,AGTGTATC,0.078
21,AGGGTCGG,-0.272
22,AGAGCACT,0.0676
